# Experimental data from PubChem BioAssay AID1347073 (National Center for Advancing Translational Sciences (NCATS), 2019).
# Screen size: about 45,000 compounds; about 200 (0.44%) were called active. Inconclusive results (about 7%) are left out. Calls follow the shape of the dose curve; as a rule, active = well fitted activation curve with a large enough effect; inconclusive = small, poorly fitted or top-dose-only effect; inactive = no such curve, though single readings can be large or run the other way. The list shows a part of the results.
# Experiment: qHTS of TDP-43 Inhibitors: NCGC Sytravon Library Screen; also: 0% is about no effect; nearly all actives have a fitted effect of over 55% in size
# Details: yeast TDP-43 toxicity rescue, BacTiter-Glo growth, 24 h; series mostly up to 46.1 µM; growth rescue (activation): at the top concentration
# Outline: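 TDP-43-expressing yeast, pregrown in raffinose, seeded at OD600 0.02 in galactose medium with compound for 24 hr at 30 deg C. Growth read by BacTiter-Glo luminescence, so rescue of toxicity appears as activation.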
row,SMILES,growth rescue (activation)
1,NS(=O)(=O)c1ccc(CCNc2ccn3nc(-c4cccc(C(F)(F)F)c4)cc3n2)cc1,inactive: 11.7%
2,Cc1ccc(C(C(=O)NC2CCCCC2)N(Cc2ccccc2)C(=O)Cc2c[nH]c3ccccc23)o1 (centres undefined),inactive: 0.196%
3,COc1ccccc1/C=C(/C(=O)OCC(=O)Nc1cc(C)ccc1C)c1ccccc1,inactive: 9.08%
4,Cc1ccc(C)c(NC(=S)N2CCN(CCO)CC2)c1,inactive: 6.94%
5,Nn1c(Cc2cccc3ccccc23)n[nH]c1=S,inactive: 1.79%
6,O=C(O)c1ccccc1OCC1CCCO1 (centres undefined),inactive: -1.13%
7,CC(=O)N/C(=N\c1nc(C)cc(C)n1)Nc1ccccc1Cl,inactive: -14.4%
8,Cc1cc(C)c(/C=N/NC(=O)c2nnn(-c3nonc3N)c2CN2CCC(C)CC2)c(C)c1,inactive: -4.13%
9,CCCOc1ccc(C(=O)NNC(=S)NC(=O)c2cccs2)cc1,inactive: -5.11%
10,COc1cc(/C=C(\NC(=O)c2ccccc2)C(=O)N2CC3CC(C2)c2cccc(=O)n2C3)cc(OC)c1OC (centres undefined),inactive: 2.44%
11,Cc1ccc(NC(=O)C=NOCC(=O)Nc2cc(C)cc(C)c2)cc1,inactive: 22%
12,O=C(CN1CCN(c2ccc(F)cc2)CC1)N(C1CCCC1)C1CCS(=O)(=O)C1 (centres undefined),inactive: 20.1%
13,C=CCN(c1ccccc1OC)S(=O)(=O)c1cccc(C(=O)NCc2cccs2)c1,inactive: 8.12%
14,Cc1ccc(/C=C/c2ccc3cccc(O)c3n2)s1,inactive: 11.7%
15,N#Cc1c(N)n(-c2ccc(O)cc2)c2nc3ccccc3nc12,inactive: -1.86%
16,CCCCCCCCCCOC(=O)Cn1c(COc2ccc(C)cc2)[n+](C)c2ccccc21,inactive: -93.1%
17,Cc1ccc2[nH]c(=O)c(CN(CC3CCCO3)C(=O)c3cccs3)cc2c1 (centres undefined),inactive: -12.6%
18,O=S(=O)(NCc1cccs1)NCc1ccccc1F,inactive: 2.96%
19,Cc1ccc(F)c(S(=O)(=O)NC(=O)C2(C)CCN2C(=O)Cc2ccc(C(C)(C)C)cc2)c1 (centres undefined),inactive: 3.47%
20,Oc1cccc(-c2ccc3nccn3c2)c1,inactive: -18.8%
21,CS/C(=N\S(=O)(=O)c1cccs1)Nc1ccc(F)c(Cl)c1,inactive: 5.27%
22,Cc1ccc(S(=O)(=O)N2CCC(NC(=O)c3cccnc3)CC2)cc1Cl,inactive: 13.4%
23,COC(=O)c1ccccc1NC(=O)c1ccc2c(=O)n3c(nc2c1)CCCCC3,inactive: 0.41%

row,SMILES,growth rescue (activation)
1,Cc1ccc(NC(=O)CSC2=NN3CCCC(=O)N=C3S2)cc1Cl,inactive: -7.58%
2,CCc1nc(SCC(=O)c2cccc([N+](=O)[O-])c2)n[nH]1,inactive: 18.4%
3,C1CC(CN2CCOCC2)CN(Cc2nc(CC3CC3)no2)C1 (centres undefined),inactive: 12.6%
4,Cc1cc(NC(=O)c2ccc(Br)c([N+](=O)[O-])c2)no1,inactive: 10.9%
5,COc1cccc(CC2(CO)CCN(CC3=CC[C@H]4C[C@@H]3C4(C)C)CC2)c1,inactive: 11.1%
6,Cn1c(=O)n(C)c2cc([N+](=O)[O-])c(N3CCN(C(=O)C(C)(C)C)CC3)cc21,inactive: -3.45%
7,Oc1ccc2c(c1)C1CCCC1(N1CCOCC1)O2 (centres undefined),inactive: 19.8%
8,O=C(CSc1nnc(CCc2ccccc2)n1-c1ccc(Cl)cc1)NCc1ccccc1,inactive: 30.7%
9,CC(=O)CSc1nc2c(c(=O)[nH]c(=O)n2C)n1Cc1ccccc1Cl,inactive: -0.235%
10,Cc1cccc(C)c1OCc1cc(C(=O)N(Cc2nccn2C)C(C)C)no1,inactive: 1.08%
11,Cc1cc(NS(=O)(=O)c2ccc(NS(=O)(=O)c3ccc(CC(C)C)cc3)cc2)nc(C)n1,inactive: -0.824%
12,O=C(NC(=S)N1CCCC(C(F)(F)F)C1)c1ccc(F)cc1 (centres undefined),inactive: 5.15%
13,N#Cc1ccccc1NC(=O)COc1ccc2c(c1)OCO2,inactive: 14.9%
14,CCCS(=O)(=O)N1CCCC(C(=O)NCc2ccc(C)cc2)C1 (centres undefined),inactive: 29.4%
15,CN(Cc1ccccc1)C(=O)c1ccc(NC(=O)c2ccccc2)cc1,inactive: 20.7%
16,N#CCC(=O)N/N=C/c1ccc(Cl)cc1,inactive: -22.7%
17,COc1ccc2sc(/C=C/c3ccccc3O)[n+](C)c2c1,inactive: -5.92%
18,CN(CC(=O)Nc1ccccc1Br)C(=O)c1cccc([N+](=O)[O-])c1,inactive: 19.8%
19,CC(NC(=O)c1ccc(F)cc1)c1ccc2c(c1)CCCC2 (centres undefined),inactive: 12.5%
20,Cc1cc(NC(=O)/C=C/c2ccco2)ccc1NC(=O)c1ccccc1,inactive: -6.1%
21,Cc1ccccc1Nc1nc(N)nc(CSc2ccccc2)n1,inactive: 41.5%
22,CCc1ccc(C2=NNC(=Nc3cccc(S(=O)(=O)N(C)C)c3)SC2)cc1,inactive: 5.9%
23,CN(CCO)C1=NS(=O)(=O)c2cc([N+](=O)[O-])ccc21,inactive: 7.48%

row,SMILES,growth rescue (activation)
1,COc1ccc(OCCN2CCC(C(=O)NC(C)c3cccc4ccccc34)CC2)cc1 (centres undefined),inactive: 5.6%
2,CS(=O)(=O)N(Cc1ccc(Cl)cc1)c1ccc(C(=O)NCc2ccccn2)cc1,inactive: 27%
3,CC(C)(C)NC(=O)NC(=O)COC(=O)c1cc[n+]([O-])cc1,inactive: 10.3%
4,COc1cc(SC)ccc1C(=O)Nc1ccc2c(c1)CCC2,inactive: 8.57%
5,Cc1cc2c(SCC(=O)NC3CCCCC3)ncnc2s1,inactive: 12.4%
6,CCNc1ccc(C(=O)OCC)cc1NC(=O)c1cccc(S(=O)(=O)N(C)c2ccccc2)c1,inactive: 14.2%
7,Cc1ccc(S(=O)(=O)c2nc(-c3ccccc3)oc2SCC(=O)NCC2CCCO2)cc1 (centres undefined),inactive: 0.287%
8,O=C(Cn1c(=O)oc2ccccc21)Nc1ccc(Br)cc1,inactive: 9.87%
9,Cc1cccc(N(CC(=O)NC(C)(C)C)C(=O)CS(=O)CC(=O)Nc2ccc(F)cc2)c1 (centres undefined),inactive: 13.7%
10,Cc1cc(NC(=O)CSc2nc3c(cc2C#N)CCCCC3)no1,inactive: 0.786%
11,CC(C)(C)NC(=O)C(=O)NNC(=O)c1ccccc1,inactive: 29.7%
12,Cc1nc(Nc2ccccc2)c2oc3ccc(Cl)cc3c2n1,inactive: -0.738%
13,Cc1cc2c(SCC(=O)Nc3ccccc3O)ncnc2s1,inactive: 10.5%
14,COc1cc(CC(=O)N2CCN(C(=O)C3CCCO3)CC2)cc(OC)c1OC (centres undefined),inactive: 0.31%
15,Cc1[nH]n(-c2ccccc2)c(=O)c1C=Nc1ccc(S(N)(=O)=O)cc1,inactive: 6.39%
16,Cc1ccnc2nc(C(=O)Nc3nc(-c4ccccn4)cs3)nn12,inactive: 7.55%
17,O=S(=O)(Nc1ccc(N2CCCCC2)cc1)c1ccc(F)c(F)c1,inactive: 21.6%
18,CC(Sc1nnc(-c2ccncc2)n1C)C(=O)Nc1nccs1 (centres undefined),inactive: -4.52%
19,CCOC(=O)c1oc2c(c1C)-c1nn(Cc3c(F)cccc3Cl)cc1CC2,inactive: 10.9%
20,CC(C)N1CCN(Cc2ccoc2)CC1CCO (centres undefined),inactive: -0.455%
21,CC(C)CCNC(=O)Nc1ccc2c(c1)N(Cc1ccccc1)C(=O)c1ccccc1S2,inactive: 17.6%
22,C=CCNC(=O)C(=O)N/N=C/c1ccco1,inactive: 2.94%
23,CC(=O)N(CCc1ccccc1C)Cc1cc2cc3c(cc2[nH]c1=O)OCO3,inactive: 5.51%
